Source: the supplement of paper PMC10369915
Some of the results follow. Rule as the data show it: active = 3.2 or more and inactive = the rest. Most of these values are background signal.

Key:
Experiment in all cases: enrichment score (SH2-bound / input frequency) (ratio); bacterial display of known human phosphotyrosine sites (pTyr-Var adds point mutants) read by sequencing; higher = stronger binding; tyrosines were phosphorylated by kinases first
Details in all cases: peptide library: Human pTyr
SHP2 C-SH2 domain E139D = target: SHP2 C-SH2 domain E139D
[1] = target: SHP2 C-SH2 domain wild-type
SHP2 N-SH2 domain L43F = target: SHP2 N-SH2 domain L43F
SHP2 N-SH2 domain T42A = target: SHP2 N-SH2 domain T42A
SHP2 N-SH2 domain T52S = target: SHP2 N-SH2 domain T52S
[2] = target: SHP2 N-SH2 domain wild-type

Measured: enrichment score
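Also: displayed peptides selected on beads carrying the immobilized SH2 domain, with library peptides lacking any tyrosine serving as negative controls.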

B1: EMD_HUMAN_41_YA (peptide)
chain: AEKKIFEYETQRRRL
inactive: SHP2 C-SH2 domain E139D 1.04 | [1] 1.14 | SHP2 N-SH2 domain L43F 1.84 | SHP2 N-SH2 domain T42A 1.4 | SHP2 N-SH2 domain T52S 1.82 | [2] 1.07

B2: ADH1B_HUMAN_35 (peptide)
chain: EVAPPKAYEVRIKMV
inactive: SHP2 C-SH2 domain E139D 1.31 | [1] 1.13 | SHP2 N-SH2 domain L43F 1.09 | SHP2 N-SH2 domain T42A 1.22 | SHP2 N-SH2 domain T52S 1.37 | [2] 1.42

B3: EZH2_HUMAN_641 (peptide)
chain: KNEFISEYCGEIISQ
inactive: SHP2 C-SH2 domain E139D 1 | [1] 1.14 | SHP2 N-SH2 domain L43F 0.97 | SHP2 N-SH2 domain T42A 0.911 | SHP2 N-SH2 domain T52S 1.26 | [2] 1.19

B4: EPHA6_HUMAN_612_YA (peptide)
chain: TAIDPDTYEDPSLAV
inactive: SHP2 C-SH2 domain E139D 1 | [1] 0.855 | SHP2 N-SH2 domain L43F 0.801 | SHP2 N-SH2 domain T42A 1.24 | SHP2 N-SH2 domain T52S 0.968 | [2] 0.917

B5: EPOR_HUMAN_426 (peptide)
chain: ASAASFEYTILDPSS
inactive: SHP2 C-SH2 domain E139D 0.699 | [1] 0.843 | SHP2 N-SH2 domain L43F 1.18 | SHP2 N-SH2 domain T42A 0.836 | SHP2 N-SH2 domain T52S 0.862 | [2] 0.77

B6: ERBB3_HUMAN_1262_YA (peptide)
chain: TPDEDAEYMNRQRDG
inactive: SHP2 C-SH2 domain E139D 1.09 | [1] 0.59 | SHP2 N-SH2 domain L43F 0.888 | SHP2 N-SH2 domain T42A 0.635 | SHP2 N-SH2 domain T52S 0.938 | [2] 0.58

B7: ENOA_HUMAN_287 (peptide)
chain: YKSFIKDYPVVSIED
inactive: SHP2 C-SH2 domain E139D 1.16 | [1] 0.687 | SHP2 N-SH2 domain L43F 0.789 | SHP2 N-SH2 domain T42A 0.993 | SHP2 N-SH2 domain T52S 0.873 | [2] 1.05

B8: EPHA5_HUMAN_650 (peptide)
chain: KLPGVRTYIDPHTYE
inactive: SHP2 C-SH2 domain E139D 0.633 | [1] 0.565 | SHP2 N-SH2 domain L43F 0.527 | SHP2 N-SH2 domain T42A 0.799 | SHP2 N-SH2 domain T52S 0.663 | [2] 0.535

B9: EPHB4_HUMAN_774 (peptide)
chain: ENSSDPTYTSSLGGK
inactive: SHP2 C-SH2 domain E139D 0.669 | [1] 0.593 | SHP2 N-SH2 domain L43F 0.717 | SHP2 N-SH2 domain T42A 0.619 | SHP2 N-SH2 domain T52S 0.656 | [2] 0.532

B10: EPHA1_HUMAN_599 (peptide)
chain: DKLWLKPYVDLQAYE
inactive: SHP2 C-SH2 domain E139D 1.11 | [1] 1.08 | SHP2 N-SH2 domain L43F 1.06 | SHP2 N-SH2 domain T42A 1.21 | SHP2 N-SH2 domain T52S 1.04 | [2] 1.23

B11: EPHA8_HUMAN_616_YA (peptide)
chain: FAAEPHTYEEPGRAG
inactive: SHP2 C-SH2 domain E139D 0.944 | [1] 0.667 | SHP2 N-SH2 domain L43F 0.773 | SHP2 N-SH2 domain T42A 0.579 | SHP2 N-SH2 domain T52S 0.736 | [2] 0.67

B12: EPHA3_HUMAN_937 (peptide)
chain: EIFTGVEYSSCDTIA
inactive: SHP2 C-SH2 domain E139D 1.09 | [1] 0.957 | SHP2 N-SH2 domain L43F 0.965 | SHP2 N-SH2 domain T42A 0.997 | SHP2 N-SH2 domain T52S 1.12 | [2] 0.964

B13: ADRBK1_HUMAN_13 (peptide)
chain: AVLADVSYLMAMEKS
inactive: SHP2 C-SH2 domain E139D 0.63 | [1] 0.62 | SHP2 N-SH2 domain L43F 0.74 | SHP2 N-SH2 domain T42A 0.745 | SHP2 N-SH2 domain T52S 1.36 | [2] 0.433

B14: EMD_HUMAN_99 (peptide)
chain: DDYYEESYFTTRTYG
inactive: SHP2 C-SH2 domain E139D 1.22 | [1] 0.903 | SHP2 N-SH2 domain L43F 0.807 | SHP2 N-SH2 domain T42A 0.932 | SHP2 N-SH2 domain T52S 0.926 | [2] 0.948

B15: EPHA1_HUMAN_599_YA (peptide)
chain: DKLWLKPYVDLQAAE
inactive: SHP2 C-SH2 domain E139D 1.02 | [1] 1.01 | SHP2 N-SH2 domain L43F 0.984 | SHP2 N-SH2 domain T42A 1.02 | SHP2 N-SH2 domain T52S 1.28 | [2] 1

B16: EFHD2_HUMAN_83 (peptide)
chain: SRRVFNPYTEFKEFS
inactive: SHP2 C-SH2 domain E139D 1.04 | [1] 1.25 | SHP2 N-SH2 domain L43F 0.946 | SHP2 N-SH2 domain T42A 0.99 | SHP2 N-SH2 domain T52S 0.993 | [2] 1.12

B17: EMD_HUMAN_94_YA (peptide)
chain: SKGANDDYAEESAFT
inactive: SHP2 C-SH2 domain E139D 0.732 | [1] 0.648 | SHP2 N-SH2 domain L43F 0.77 | SHP2 N-SH2 domain T42A 0.604 | SHP2 N-SH2 domain T52S 0.581 | [2] 0.9

B18: ELMO1_HUMAN_511 (peptide)
chain: SKLQNLSYTEILKIR
inactive: SHP2 C-SH2 domain E139D 1.31 | [1] 1.69 | SHP2 N-SH2 domain L43F 1.43 | SHP2 N-SH2 domain T42A 1.65 | SHP2 N-SH2 domain T52S 1.3 | [2] 1.42

B19: ADSV_HUMAN_599 (peptide)
chain: SLGGKKDYQTSPLLE
inactive: SHP2 C-SH2 domain E139D 0.742 | [1] 0.704 | SHP2 N-SH2 domain L43F 0.802 | SHP2 N-SH2 domain T42A 0.934 | SHP2 N-SH2 domain T52S 0.787 | [2] 0.773

B20: EMD_HUMAN_182_YA (peptide)
chain: SSLDLSAYPTSSSTS
inactive: SHP2 C-SH2 domain E139D 0.564 | [1] 0.47 | SHP2 N-SH2 domain L43F 0.516 | SHP2 N-SH2 domain T42A 0.465 | SHP2 N-SH2 domain T52S 0.386 | [2] 0.53

B21: FAK1_HUMAN_5 (peptide)
chain: GGGMAAAYLDPNLNH
inactive: SHP2 C-SH2 domain E139D 0.643 | [1] 0.597 | SHP2 N-SH2 domain L43F 0.562 | SHP2 N-SH2 domain T42A 0.579 | SHP2 N-SH2 domain T52S 0.612 | [2] 0.607

B22: ADRBK1_HUMAN_86 (peptide)
chain: ARPLVEFYEEIKKYE
inactive: SHP2 C-SH2 domain E139D 1.25 | [1] 1.74 | SHP2 N-SH2 domain L43F 0.994 | SHP2 N-SH2 domain T42A 1.36 | SHP2 N-SH2 domain T52S 0.992 | [2] 1.38

B23: ERBB4_HUMAN_1208 (peptide)
chain: EYVNEPLYLNTFANT
inactive: SHP2 C-SH2 domain E139D 0.981 | [1] 0.839 | SHP2 N-SH2 domain L43F 0.679 | SHP2 N-SH2 domain T42A 0.819 | SHP2 N-SH2 domain T52S 0.911 | [2] 0.881

B24: FABP4_HUMAN_20 (peptide)
chain: SSENFDDYMKEVGVG
inactive: SHP2 C-SH2 domain E139D 1.01 | [1] 0.862 | SHP2 N-SH2 domain L43F 1.05 | SHP2 N-SH2 domain T42A 0.944 | SHP2 N-SH2 domain T52S 1.33 | [2] 1.21

B25: ELMO1_HUMAN_720_YA (peptide)
chain: IPKEPSNYDFVADCN
inactive: SHP2 C-SH2 domain E139D 0.927 | [1] 0.731 | SHP2 N-SH2 domain L43F 0.888 | SHP2 N-SH2 domain T42A 0.797 | SHP2 N-SH2 domain T52S 0.859 | [2] 1.09

B26: EPOR_HUMAN_468 (peptide)
chain: DSGISTDYSSGDSQG
inactive: SHP2 C-SH2 domain E139D 0.746 | [1] 0.486 | SHP2 N-SH2 domain L43F 0.673 | SHP2 N-SH2 domain T42A 0.592 | SHP2 N-SH2 domain T52S 0.637 | [2] 0.567

B27: ACLY_HUMAN_682 (peptide)
chain: SRTTDGVYEGVAIGG
inactive: SHP2 C-SH2 domain E139D 0.691 | [1] 0.515 | SHP2 N-SH2 domain L43F 0.62 | SHP2 N-SH2 domain T42A 0.551 | SHP2 N-SH2 domain T52S 0.618 | [2] 0.703

B28: EPHA7_HUMAN_614 (peptide)
chain: TYIDPETYEDPNRAV
inactive: SHP2 C-SH2 domain E139D 0.852 | [1] 0.533 | SHP2 N-SH2 domain L43F 0.676 | SHP2 N-SH2 domain T42A 0.751 | SHP2 N-SH2 domain T52S 0.843 | [2] 0.688

B29: ESR2_HUMAN_36 (peptide)
chain: SIYIPSSYVDSHHEY
inactive: SHP2 C-SH2 domain E139D 0.687 | [1] 0.665 | SHP2 N-SH2 domain L43F 0.864 | SHP2 N-SH2 domain T42A 0.56 | SHP2 N-SH2 domain T52S 0.823 | [2] 0.564

B30: EPHA3_HUMAN_602 (peptide)
chain: TYVDPHTYEDPTQAV
inactive: SHP2 C-SH2 domain E139D 0.727 | [1] 0.409 | SHP2 N-SH2 domain L43F 0.637 | SHP2 N-SH2 domain T42A 0.698 | SHP2 N-SH2 domain T52S 0.508 | [2] 0.651

B31: EPHA2_HUMAN_594_YA (peptide)
chain: TAVDPHTYEDPNQAV
inactive: SHP2 C-SH2 domain E139D 0.755 | [1] 0.871 | SHP2 N-SH2 domain L43F 0.873 | SHP2 N-SH2 domain T42A 1.01 | SHP2 N-SH2 domain T52S 0.715 | [2] 0.418

B32: EPOR_HUMAN_368 (peptide)
chain: SEHAQDTYLVLDKWL
inactive: SHP2 C-SH2 domain E139D 0.785 | [1] 0.687 | SHP2 N-SH2 domain L43F 0.561 | SHP2 N-SH2 domain T42A 0.643 | SHP2 N-SH2 domain T52S 0.637 | [2] 0.458

B33: EPHA7_HUMAN_608 (peptide)
chain: KFPGTKTYIDPETYE
inactive: SHP2 C-SH2 domain E139D 0.693 | [1] 0.846 | SHP2 N-SH2 domain L43F 0.653 | SHP2 N-SH2 domain T42A 0.612 | SHP2 N-SH2 domain T52S 0.7 | [2] 0.898

B34: ERBB3_HUMAN_1199_YA (peptide)
chain: DEDEEAEYMNRRRRH
inactive: SHP2 C-SH2 domain E139D 0.951 | [1] 0.866 | SHP2 N-SH2 domain L43F 0.765 | SHP2 N-SH2 domain T42A 0.796 | SHP2 N-SH2 domain T52S 0.73 | [2] 0.766

B35: EMD_HUMAN_182 (peptide)
chain: SSLDLSYYPTSSSTS
inactive: SHP2 C-SH2 domain E139D 0.604 | [1] 0.584 | SHP2 N-SH2 domain L43F 0.6 | SHP2 N-SH2 domain T42A 0.474 | SHP2 N-SH2 domain T52S 0.646 | [2] 0.516

B36: FAK2_HUMAN_402 (peptide)
chain: CSIESDIYAEIPDET
inactive: SHP2 C-SH2 domain E139D 1.59 | [1] 1.36 | SHP2 N-SH2 domain L43F 1.24 | SHP2 N-SH2 domain T42A 1.51 | SHP2 N-SH2 domain T52S 1.46 | [2] 2.39
